In PubChem BioAssay AID485294 (National Center for Advancing Translational Sciences (NCATS), 2010):
In all, about 370,000 compounds went through this assay and about 150 (0.041%) were called active. The inconclusive results got no clear call from the source; some entries with a clear call stand among them for comparison. The call rests on the fitted dose curve; in most records, active means well fitted inhibition curve with a large enough effect; inconclusive means small, poorly fitted or top-dose-only effect; inactive means flat fitted curve, though single readings scatter. No potency is given beside an inconclusive call; the fits are too rough.

molecular target: Beta-lactamase (Escherichia coli (strain K12)) (UniProt P00811); experiment: qHTS Inhibitors of AmpC Beta-Lactamase (assay with detergent); conditions: AmpC hydrolysis of nitrocefin, absorbance 480 nm, 0.01% Triton; series mostly up to 114 µM; further: nearly all actives have a fitted effect of over 25% in size
Method in brief: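 20 mM phosphate pH 7.0 + 0.01% (detergent screen) or 0.0001% Triton X-100; 5.3 nM AmpC reagent; cpd preinc 15 min RT; nitrocefin (800 uM stock) to start; A480 q20 s × 4 min; Activity was normalised to no-enzyme and no-compound control wells.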
Potency means the concentration at half of the fitted maximal effect; tags describe the fitted curve by direction and shape.

UniProt P00811, sequence (P00811 whole entry, looked up): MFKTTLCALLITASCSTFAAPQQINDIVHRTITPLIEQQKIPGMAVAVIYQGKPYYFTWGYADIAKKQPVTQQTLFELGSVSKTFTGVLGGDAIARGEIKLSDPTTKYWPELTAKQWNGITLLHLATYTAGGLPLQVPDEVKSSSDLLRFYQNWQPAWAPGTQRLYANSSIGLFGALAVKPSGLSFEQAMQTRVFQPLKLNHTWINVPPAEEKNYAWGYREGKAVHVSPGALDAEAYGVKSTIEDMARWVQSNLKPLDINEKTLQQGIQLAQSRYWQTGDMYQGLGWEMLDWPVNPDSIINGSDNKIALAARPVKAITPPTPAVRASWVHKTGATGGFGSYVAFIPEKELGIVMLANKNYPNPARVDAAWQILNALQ

| Compound | Potency |
| --- | --- |
| COC(=O)c1cccc(NC(=O)Cn2cnc3c2c(=O)n(C)c(=O)n3C)c1 | inconclusive [inhibitor, full curve, poor fit] |
| CC(C)(C)OC(=O)N[C@@H](Cc1ccccc1)C(=O)N1CCC(C(=O)NCC(=O)O)CC1 | inactive |
| N#CC1=C(SCC(=O)NCc2ccccc2)NC(=O)CC1c1ccco1 (configuration not stated) | inactive |
| CCC(=O)c1cn(CC(=O)Nc2cccc(C)c2)c2ccccc12 | inconclusive [inhibitor, single point] |
| CCOC(=O)N1CCN(CC(O)COc2ccccc2C(C)CC)CC1 (configuration not stated) | inconclusive [inhibitor, full curve] |
| O=C(CNC(=O)C1CCCCC1)Nc1ccccc1 | inconclusive [inhibitor, full curve, poor fit] |
| COc1ccc(NC(=O)NCCCCc2ccccc2)cc1OC | inconclusive [inhibitor, full curve, poor fit] |
| CCOC(=O)CNC(=O)c1cn(CC(C)C)c(=O)c2cc(OC)c(OC)cc12 | inconclusive [inhibitor, full curve, poor fit] |
| CC(=O)c1cccc(NC(=O)CC2Oc3ccc(C)cc3NC2=O)c1 (configuration not stated) | inconclusive [inhibitor, full curve, poor fit] |
| CC(C)CC(=O)NC(=S)N1CCCCCC1 | inconclusive [inhibitor, partial curve, poor fit] |
| CC(C)C(=O)Nc1nc2c(ncn2C2CC(O)C(CO)O2)c(=O)[nH]1 (configuration not stated) | inconclusive [inhibitor, partial curve] |
| Cc1ccccc1C(=O)Oc1ccccc1C(=O)N1CCOCC1 | inconclusive [inhibitor, partial curve, poor fit] |
| COc1cccc(NC(=O)C(C)(C)C)c1 | inconclusive [inhibitor, single point] |
| Cc1cccc(-c2nc(C#N)c(NCC3CCCO3)o2)c1 (configuration not stated) | inactive |
| Cn1cnnc1SCC(=O)Nc1ccc2nc(SCc3ccccc3F)sc2c1 | inactive |
| CCN(CC)CCCN1C(=O)C(O)=C(C(C)=O)C1c1cccc(OC)c1 (configuration not stated) | inconclusive [inhibitor, full curve, poor fit] |
| COCCN1C(=O)c2cc(C(=O)Nc3ccc(C)c(F)c3)ccc2C1Nc1ccc(C)c(F)c1 (configuration not stated) | inconclusive [inhibitor, full curve, poor fit] |
| O=C(c1cccnc1)N(Cc1ccccc1)c1ccccc1 | inconclusive [inhibitor, full curve, poor fit] |
| CN1C(N)=NC(=O)/C1=C/c1ccccc1F | inconclusive [inhibitor, single point] |
| Cc1cc(C)c(NC(=O)C2CCCCN2C)c(C)c1 (configuration not stated) | inconclusive [inhibitor, full curve, poor fit] |
| Cc1cc(C)n2nc3nc(N4CCCC4)nc(-c4ccccc4)c3c2n1 | inconclusive [inhibitor, single point] |
| Cc1ccccc1N1CCN(Cc2c(C#N)c3ccccc3n2C)CC1 | inconclusive [inhibitor, partial curve] |
| CCN(CC)c1ccc(/C=N/NC(=O)CN2CCCc3ccccc32)cc1 | inconclusive [inhibitor, full curve, poor fit] |

| Compound | Potency |
| --- | --- |
| O=C1OC2(CCCCC2)OC(=O)C1=CNc1ccc2c(c1)OCO2 | inactive |
| Cc1ccc(-c2csc3nc(C)n(N)c(=O)c23)cc1 | inconclusive [inhibitor, full curve, poor fit] |
| CCOC(=O)c1nn(-c2ccc3c(c2)CCN3C(C)=O)cc1O | inconclusive [inhibitor, full curve] |
| COc1ccccc1-c1c(C)oc2cc(OCC(=O)OCc3ccccc3)ccc2c1=O | inconclusive [inhibitor, partial curve, poor fit] |
| COc1cc(NC(=O)c2cnn3c(C(F)F)cc(C4CC4)nc23)c(OC)cc1Cl | inconclusive [inhibitor, partial curve] |
| CC(=O)c1c(C)[nH]c(C(=O)COC(=O)CCSc2ccccc2)c1C | inconclusive [inhibitor, full curve] |
| CC(Oc1ccc(Cl)cc1Cl)c1nc(-c2ccc(NC(=O)c3ccncc3)cc2)no1 (configuration not stated) | inactive |
| CCn1c(SCC(=O)Nc2cc(F)ccc2C)nnc1-c1ccccc1O | inconclusive [inhibitor, single point] |
| CCOC(=O)Cn1cc(C=O)c2ccccc21 | inconclusive [inhibitor, full curve, poor fit] |
| CC/C(CC(c1ccccc1)c1c(O)c2ccccc2oc1=O)=N\NC(N)=S (configuration not stated) | inconclusive [inhibitor, full curve, poor fit] |
| CC1(C)C2CCC1(C)C(NC(=O)/C=C/c1ccccc1)C2 (configuration not stated) | inactive |
| Nc1nc(-c2ccco2)nn1C(=O)c1ccccc1 | inconclusive [inhibitor, single point] |
| Cc1ccccc1C(=O)OCn1nnc2ccccc2c1=O | inconclusive [inhibitor, full curve, poor fit] |
| COc1ccc(C(=O)C(Cc2ccccc2)N(C)C)cc1 (configuration not stated) | inactive |
| CCOC(=O)C(=CNc1ccc(Cl)cn1)C(=O)OCC | inconclusive [inhibitor, partial curve, poor fit] |
| CCOC(=O)N1CCN(C(=O)C2CCCN(c3nc4ccc(OCC)cc4s3)C2)CC1 (configuration not stated) | inconclusive [inhibitor, full curve, poor fit] |
| CCCCN(CC)CCCNC(=S)Nc1ccc2nc(N3CCN(C)CC3)cc(C)c2c1 | inactive |
| O=C(O)CSCC(=O)Nc1cc(C(F)(F)F)ccc1Cl | inconclusive [inhibitor, full curve, poor fit] |
| O=C1C2=C(SCCS2)C(=O)N1c1ccccc1 | inconclusive [inhibitor, full curve, poor fit] |
| CC1CCN(C(C)C(=O)Nc2ccc(S(=O)(=O)N3CCCC3)cc2)CC1 (configuration not stated) | inconclusive [inhibitor, partial curve, poor fit] |
| C=CCc1cccc(/C=N/c2ncn[nH]2)c1O | inconclusive [inhibitor, full curve, poor fit] |
| CCOc1ccc(NS(=O)(=O)c2cc(NC(=O)CCS(=O)(=O)c3ccc(C)cc3)ccc2OC)cc1 | inconclusive [inhibitor, full curve] |
| COc1ccc(NC(=O)CC2C(=O)N(c3ccc(Cl)cc3)C(=S)N2CCc2ccncc2)cc1 (configuration not stated) | inactive |

| Compound | Potency |
| --- | --- |
| Cc1ccc(NC(=O)c2cccc(OCc3c(C)noc3C)c2)c(C)c1 | inconclusive [inhibitor, single point] |
| O=C(CN1CCCCC1)Nc1ccc(F)c(Cl)c1 | inconclusive [inhibitor, single point] |
| C=CCn1c(=O)c(C(=O)NCCNCC)c(O)c2ccccc21 | inconclusive [inhibitor, full curve, poor fit] |
| COc1ccc2oc(C(=O)OCC(=O)N3CCCC(C)C3)c(C)c2c1 (configuration not stated) | inconclusive [inhibitor, full curve, poor fit] |
| Nc1nnnn1/N=C/c1cccs1 | inconclusive [inhibitor, full curve, poor fit] |
| CN1CC(=O)N/C1=N\C(=O)Nc1ccc2c(c1)N(C)C(=O)CS2 | inconclusive [inhibitor, partial curve] |
| COc1ccc(OC)c2c(C)c(C)[nH]c12 | inactive |
| CCCN(C(=O)CSCC(=O)Nc1cccc(C)c1)c1c(N)n(Cc2ccccc2)c(=O)[nH]c1=O | inactive |
| O=C(CS(=O)CC(=O)Nc1ccccc1-c1ccccc1)Nc1ccc(F)cc1 (configuration not stated) | inconclusive [inhibitor, full curve] |
| CCOC(=O)c1c(C)[nH]c2cc(Br)c(OC)cc12 | inconclusive [inhibitor, single point] |
| COc1ccc(C(=O)NCCn2cc(SCC(=O)NCc3ccco3)c3ccccc32)cc1 | inconclusive [inhibitor, single point] |
| O=C(NC1CCCC1)c1ccc(CSc2nc3ccncc3n2Cc2ccc(F)cc2)cc1 | inconclusive [inhibitor, partial curve, poor fit] |
| Cc1ccccc1C(=O)Nc1ccc2nc3n(c(=O)c2c1)CCC3 | inconclusive [inhibitor, partial curve, poor fit] |
| CC(=O)N1CCN(c2nnc(-c3ccccc3)c3ccccc23)CC1 | inactive |
| O=C(NCc1cccs1)C1(S(=O)(=O)c2ccccc2)CC=CC1 | inconclusive [inhibitor, partial curve] |
| CCC(=O)NS(=O)(=O)c1cccnc1Nc1ccc(Cl)cc1 | inconclusive [inhibitor, full curve, poor fit] |
| O=C(CCCc1ccccc1)c1ccc2c(c1)OCCO2 | inactive |
| C[C@@H]1CCC(=O)N(CC[C@H](Sc2ccc(Br)cc2)c2ccccc2)CC1 | inactive |
| N#Cc1nc(-c2ccccc2Cl)oc1N1CCOCC1 | inactive |
| COCCCN1C(=O)c2[nH]nc(-c3cc(C)cc(C)c3O)c2C1c1ccc(O)c(OC)c1 (configuration not stated) | inactive |
| O=C(O)/C(=C/c1ccco1)NC(=O)c1ccccc1 | inconclusive [inhibitor, full curve, poor fit] |
